From the GPR68 mutational scans of Howard et al. (2025)

B1: GPR68, Q15743 (parent)
chain: MGNITADNSSMSCTIDHTIHQTLAPVVYVTVLVVGFPANCLSLYFGYLQIKARNELGVYLCNLTVADLFYICSLPFWLQYVLQHDNWSHGDLSCQVCGILLYENIYISVGFLCCISVDRYLAVAHPFRFHQFRTLKAAVGVSVVIWAKELLTSIYFLMHEEVIEDENQHRVCFEHYPIQAWQRAINYYRFLVGFLFPICLLLASYQGILRAVRRSHGTQKSRKDQIQRLVLSTVVIFLACFLPYHVLLLVRSVWEASCDFAKGVFNAYHFSLLLTSFNCVADPVLYCFVSETTHRDLARLRGACLAFLTCSRTGRAREAYPLGAPEASGKSGAQGEEPELLTKLHPAFQTPNSPGSGGFPTGRLA

Assays:
[1] = variants of: B1; assay: cAMP reporter score (Enrich2 score, wild type = 0); higher = more signal; HEK293T, FACS bins
[2] = variants of: B1; assay: surface expression score (Enrich2 score, wild type = 0); higher = more signal; HEK293T, FACS bins

Variant	cAMP reporter score ([1]; pH 5.5)	cAMP reporter score ([1]; pH 6)	cAMP reporter score ([1]; pH 6, modulator: ogerin)	cAMP reporter score ([1]; pH 6.5, modulator: ogerin)	surface expression score [2]
A267I	0.865	0.634	1.39	1.42	0.905
A267K	-0.551	-0.647	-0.028	0.439	-1.33
A267L	-0.732	–	-0.756	-1.68	–
A267M	-0.303	-0.618	0.239	-0.843	0.332
A267N	-1.03	-0.837	-1.49	-0.978	-2.85
A267P	-0.155	-1.11	0.783	0.664	-0.655
A267S	0.008	-0.46	0.368	-0.262	0.159
A267T	-0.669	-0.358	-0.701	-0.604	-0.576
A267V	0.814	–	1.31	1.57	0.303
A267W	0.948	0.917	1.5	1.4	2.11
A267Y	-0.312	–	0.078	-1.04	–
A267_H269del	-0.958	–	-1.36	-0.492	-2.88
Y268_H269del	-1.46	-0.919	-1.75	-0.667	-2.36
Y268_H269insG	-1.71	-1.6	-2	-0.934	-2.21
H269_F270insGS	-0.793	0.028	-1.92	-1.75	-0.984
H269_S271del	-2.1	-0.514	-1.57	-1.42	-1.67
L272_L273insGSG	-0.789	-0.608	-1.11	-0.569	-1.68
L272_L274del	-1.44	-0.549	-1.43	-1.22	-2.22
L273A	-1.14	–	-1.26	–	-0.595
L273C	-0.134	-1.24	-1.46	-0.076	-1.03
L273D	-1.5	-0.989	-2.66	-1.32	-2.7
L273E	-0.904	-0.866	–	–	-1.3

Variant	cAMP reporter score ([1]; pH 5.5)	cAMP reporter score ([1]; pH 6)	cAMP reporter score ([1]; pH 6, modulator: ogerin)	cAMP reporter score ([1]; pH 6.5, modulator: ogerin)	surface expression score [2]
L273F	0.03	-0.711	-0.645	-0.34	-0.387
L273G	-1.36	-1.13	-0.957	-0.584	-2.11
L273H	-1.68	-0.36	-1.99	-1.14	-1.79
L273I	0.285	–	–	0.115	-0.198
L273K	-1.16	-0.793	-1.73	-1.7	-2.7
L273M	0.914	0.098	0.682	0.077	0.298
L273N	-1.44	-0.447	-1.9	-0.92	-2.13
L273P	-2.21	-1.76	-1.2	-0.789	-2.31
L273Q	-0.899	-0.512	-1.66	-0.763	-1.68
L273R	-1.43	-0.354	-1.39	-1.41	-0.812
L273S	-0.67	-1.16	-1.31	-0.313	-1.98
L273T	-1.72	-0.282	-1.2	-0.989	-1.82
L273V	-1.29	–	-0.195	-0.481	-0.731
L273W	-0.37	–	–	-1.13	-0.225
L273Y	-0.991	-1.66	0.072	-0.683	0.261
T275_S276insG	-1.42	-2.88	-2.02	-0.571	-2.64
S276_F277insGSG	-1.73	0.122	-0.928	-0.975	-2.85
F277_N278del	-1.95	-1.22	-2.23	-0.222	-2.23
F277_N278insG	-1.71	-1.56	-2.35	-1.14	-2.35
F277_N278insGSG	-1.71	-0.834	-1.81	-1.26	-2.24
C279_V280insGSG	-1.4	-0.447	-1.42	-0.992	-1.83
V280_D282del	-1.38	-1.36	-1.72	-1.29	-2.24

Variant	cAMP reporter score ([1]; pH 5.5)	cAMP reporter score ([1]; pH 6)	cAMP reporter score ([1]; pH 6, modulator: ogerin)	cAMP reporter score ([1]; pH 6.5, modulator: ogerin)	surface expression score [2]
A281_D282insGS	-1.53	-1.26	-1.83	-1.37	-1.81
D282_P283insG	-1.46	-0.869	-1.57	-0.777	-2.15
D282del	-1.52	-1.13	-1.1	-0.861	-0.985
P283C	-2.35	-0.987	-1.33	-0.683	–
P283D	-1.34	-0.962	-0.876	-1.51	-2.03
P283E	-1.38	-1.45	-0.89	-1.56	-1.95
P283F	-1.67	-0.737	-0.699	-0.674	-1.94
P283G	0.347	0.283	-0.451	-0.462	-1.79
P283H	-1.14	-0.514	-1.2	-0.88	-1.51
P283K	-1.19	-1.08	-0.91	-1.92	0.033
P283L	-1.86	-0.711	-1.8	-1.07	-2.27
P283M	-2.72	-1.22	-2.6	-1.96	-1.1
P283N	-0.973	-0.297	-1.67	-0.523	-1.31
P283Q	-0.415	-1.64	-0.758	-1.42	-3.91
P283R	-1.16	–	-0.782	-1.14	-2.32
P283S	-0.663	0.266	-1.14	-0.872	–
P283T	-1.51	-1.36	-1.77	-1.57	-1.33
P283V	-1.3	-1.21	-1.54	-1.81	-1.35
P283W	-0.701	-0.55	–	-0.811	-1.82
P283Y	-2.1	-1.26	-1.8	-1.48	-1.08

Scores with a large standard error are left out. Not listed are two conditions whose scores span a narrow range. Names with del lack the residues named; names with ins carry added residues between the positions named. For some of these results: How much ogerin was present is not stated here.
